# Experimental data as given in article PMC4336329 (PLoS ONE, 2015).
# In all, about 310,000 compounds went through this assay and about 2,200 (0.71%) showed an effect of 50% or more. The effect is printed as a negative number. The list shows a part of the results.
# Molecular target: human ether-à-go-go-related gene (hERG) potassium channel (human, UniProt Q12809)
# Assay: primary screen, population patch clamp on CHO cells stably expressing hERG
# Chain of human ether-à-go-go-related gene (hERG) potassium channel (Q12809 whole entry, looked up): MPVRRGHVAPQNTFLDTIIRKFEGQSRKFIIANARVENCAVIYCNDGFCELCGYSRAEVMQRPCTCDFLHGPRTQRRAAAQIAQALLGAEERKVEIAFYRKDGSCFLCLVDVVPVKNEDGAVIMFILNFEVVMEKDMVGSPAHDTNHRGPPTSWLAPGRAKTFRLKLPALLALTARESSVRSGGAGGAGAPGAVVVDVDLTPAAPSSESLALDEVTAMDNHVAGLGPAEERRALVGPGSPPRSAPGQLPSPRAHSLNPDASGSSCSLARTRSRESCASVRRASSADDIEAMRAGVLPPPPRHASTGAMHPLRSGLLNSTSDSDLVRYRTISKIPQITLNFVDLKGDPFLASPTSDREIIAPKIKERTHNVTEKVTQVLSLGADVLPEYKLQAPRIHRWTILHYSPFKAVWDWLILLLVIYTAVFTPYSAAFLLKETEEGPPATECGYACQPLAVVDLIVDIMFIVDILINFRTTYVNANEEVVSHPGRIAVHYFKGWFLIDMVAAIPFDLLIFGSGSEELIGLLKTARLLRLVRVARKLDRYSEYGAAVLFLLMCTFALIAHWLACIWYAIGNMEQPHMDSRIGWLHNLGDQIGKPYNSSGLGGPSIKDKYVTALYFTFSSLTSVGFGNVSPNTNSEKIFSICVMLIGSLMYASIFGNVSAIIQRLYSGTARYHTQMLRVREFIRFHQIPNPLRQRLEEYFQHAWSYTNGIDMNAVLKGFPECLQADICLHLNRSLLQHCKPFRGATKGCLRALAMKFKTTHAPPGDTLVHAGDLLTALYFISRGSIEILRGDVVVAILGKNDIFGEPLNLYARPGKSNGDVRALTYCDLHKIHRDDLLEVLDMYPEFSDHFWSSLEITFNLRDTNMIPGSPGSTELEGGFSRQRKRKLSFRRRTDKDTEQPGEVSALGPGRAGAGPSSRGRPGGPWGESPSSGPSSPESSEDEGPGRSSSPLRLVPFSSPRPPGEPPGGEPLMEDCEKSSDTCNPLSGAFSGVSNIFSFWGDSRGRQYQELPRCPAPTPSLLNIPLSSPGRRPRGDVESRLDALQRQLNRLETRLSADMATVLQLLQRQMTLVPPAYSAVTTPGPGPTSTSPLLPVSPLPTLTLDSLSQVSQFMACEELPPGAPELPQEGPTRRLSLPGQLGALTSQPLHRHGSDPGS
row,Structure (SMILES),"hERG current change (%, negative = inhibition) at 1uM [%]"
1,COc1ccc(C(=O)N/C(=C/c2cccnc2)C(=O)N2CCOCC2)cc1OC,11.7
2,COc1cc2c(cc1OC)CN(CC(=O)NC(=O)NCc1ccco1)CC2,3.94
3,COc1ccc2c(c1)O[C@@H](c1cccc(C(F)(F)F)c1)[C@H](OC(=O)Nc1ccc(OC(F)F)cc1)C2=O,3.96
4,Cc1cc(/C=C(\C#N)C(=O)O)c(C)n1-c1ccc(Br)cc1,11.4
5,COc1cc(C(C)=O)ccc1OCC(O)CN1CCN(c2c(C)cccc2C)CC1 (centres unmarked),-40.5
6,O=C(c1ccc2[nH]c(=O)c(=O)[nH]c2c1)N1CCc2ccccc21,13.7
7,O=C1c2ccccc2C(=O)N1CC1c2ccccc2CCN1C(=O)C1CCCCC1 (centres unmarked),-6.37
8,CCOC(=O)N1CCN(C(=O)c2cccn3c(=O)c4cc(Cl)ccc4nc23)CC1,-3.31
9,Cc1cc2[nH]c(=O)c(=O)[nH]c2cc1S(=O)(=O)N1CCN(c2cccc(C(F)(F)F)c2)CC1,15.2
10,O=c1cc(/C=C/c2cccs2)[nH]c2ccccc12,8.94
11,Cc1ccc(C)c(NC(=O)c2cc(-c3cccnc3)nc3ccccc23)c1,14.4
12,CC(CC(=O)Nc1nncs1)c1ccccc1 (centres unmarked),3.75
13,Cc1cc(Cl)cc2sc(NC(=O)c3ccco3)nc12,7.38
14,Cc1cc(NC(=O)CSc2nnc(C)c(=O)[nH]2)no1,8.78
15,COc1ccc(/C(=N/Nc2ncnc3ccccc23)C(=O)O)cc1,15.5
16,CCSc1ccc([C@@H]2[C@@H]3C(=O)N(CC)C(=O)[C@@H]3[C@]3(C(=O)OC)CCCN23)cc1.O=C(O)C(F)(F)F,9.99
17,O=C(NN1C(=O)c2cc(Br)ccc2NC1c1cc(Br)cc(Br)c1O)c1ccncc1 (centres unmarked),11.5
18,CCN1CCc2c(OCC(=O)N3CCc4ccccc43)cccc2C1=O,7.68
19,O=C(CC(c1ccccc1)c1ccccc1)Nc1nn[nH]n1,8.7
20,O=c1nc2n(c3cc(Cl)c(S(=O)(=O)N4CCOCC4)cc13)CCCCC2,18.8
21,Cc1nc2ccccc2c(=O)n1NC(=O)c1ccc([N+](=O)[O-])cc1,6.73
22,COc1ccc(C2C3=C(CC(C)(C)CC3=O)Nc3c2c(=O)n(C)c(=O)n3C)cc1OC (centres unmarked),13.1
23,Cc1ccc(CNC(=O)CCSCc2ccccc2F)cc1,1.01
